The record followed here is the supplement of paper PMC8728848.

Test in all cases: glycan array binding signal (z-score within array); higher = stronger binding
Settings in all cases: glycan notation: IUPAC condensed, linker removed

For experiment [1], the target named is Gal(b1-4)GlcNAc(b1-3)Gal(b1-3)GlcNAc. A digest of the protocol:
(§1)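 Negative Z-scores can be read as non-binding. The Z-score is calculated within each array and then averaged across arrays of one protein sequence at different concentrations or buffers and across linkers. Arrays, 3228 in all, were curated from the Consortium for Functional Glycomics database and kept only where the protein sequence was available.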

In experiment [2] the target is Gal(b1-4)GlcNAc(b1-3)Gal(b1-4)Glc. A digest of the protocol: as §1
Experiment [3] has as its target Gal(b1-4)GlcNAc(b1-3)Gal(b1-4)GlcNAc. An outline of the steps: as §1
Experiment [4] addresses Gal(b1-4)GlcNAc(b1-3)Gal(b1-4)GlcNAc(b1-2)Man(a1-3)[Gal(b1-4)GlcNAc(b1-3)Gal(b1-4)GlcNAc(b1-2)Man(a1-6)]Man(b1-4)GlcNAc(b1-4)GlcNAc. An outline of the steps:
as §1

Experiment [5] has as its target Gal(b1-4)GlcNAc(b1-3)Gal(b1-4)GlcNAc(b1-2)Man(a1-3)[Gal(b1-4)GlcNAc(b1-3)Gal(b1-4)GlcNAc(b1-2)Man(a1-6)]Man(b1-4)GlcNAc(b1-4)[Fuc(a1-6)]GlcNAc. A digest of the protocol: as §1
For experiment [6], the target named is Gal(b1-4)GlcNAc(b1-3)Gal(b1-4)GlcNAc(b1-2)[Gal(b1-4)GlcNAc(b1-3)Gal(b1-4)GlcNAc(b1-6)]Man(a1-6)[Gal(b1-4)GlcNAc(b1-3)Gal(b1-4)GlcNAc(b1-2)Man(a1-3)]Man(b1-4)GlcNAc(b1-4)GlcNAc. An outline of the steps: as §1
The target in experiment [7] is Gal(b1-4)GlcNAc(b1-3)Gal(b1-4)GlcNAc(b1-2)[Gal(b1-4)GlcNAc(b1-3)Gal(b1-4)GlcNAc(b1-6)]Man(a1-6)[Gal(b1-4)GlcNAc(b1-3)Gal(b1-4)GlcNAc(b1-2)Man(a1-3)]Man(b1-4)GlcNAc(b1-4)[Fuc(a1-6)]GlcNAc. A digest of the protocol:
as §1

Experiment [8] deals with Gal(b1-4)GlcNAc(b1-3)Gal(b1-4)GlcNAc(b1-3)Gal(b1-4)GlcNAc. An outline of the steps: as §1
Experiment [9] deals with Gal(b1-4)GlcNAc(b1-3)Gal(b1-4)GlcNAc(b1-3)Gal(b1-4)GlcNAc(b1-2)Man(a1-3)[Gal(b1-4)GlcNAc(b1-3)Gal(b1-4)GlcNAc(b1-3)Gal(b1-4)GlcNAc(b1-2)Man(a1-6)]Man(b1-4)GlcNAc(b1-4)GlcNAc. A digest of the protocol:
as §1

Experiment [10] has as its target Gal(b1-4)GlcNAc(b1-3)Gal(b1-4)GlcNAc(b1-3)Gal(b1-4)GlcNAc(b1-2)Man(a1-3)[Gal(b1-4)GlcNAc(b1-3)Gal(b1-4)GlcNAc(b1-3)Gal(b1-4)GlcNAc(b1-2)Man(a1-6)]Man(b1-4)GlcNAc(b1-4)[Fuc(a1-6)]GlcNAc. An outline of the steps: as §1
The target in experiment [11] is Gal(b1-4)GlcNAc(b1-3)Gal(b1-4)GlcNAc(b1-3)Gal(b1-4)GlcNAc(b1-2)[Gal(b1-4)GlcNAc(b1-3)Gal(b1-4)GlcNAc(b1-3)Gal(b1-4)GlcNAc(b1-6)]Man(a1-6)[Gal(b1-4)GlcNAc(b1-3)Gal(b1-4)GlcNAc(b1-3)Gal(b1-4)GlcNAc(b1-2)Man(a1-3)]Man(b1-4)GlcNAc(b1-4)[Fuc(a1-6)]GlcNAc. A digest of the protocol: as §1
For experiment [12], the target named is Gal(b1-4)GlcNAc(b1-3)Gal(b1-4)GlcNAc(b1-3)Gal(b1-4)GlcNAc(b1-3)Gal(b1-4)GlcNAc(b1-2)Man(a1-3)[Gal(b1-4)GlcNAc(b1-3)Gal(b1-4)GlcNAc(b1-3)Gal(b1-4)GlcNAc(b1-3)Gal(b1-4)GlcNAc(b1-2)Man(a1-6)]Man(b1-4)GlcNAc(b1-4)GlcNAc. An outline of the steps: as §1
The target of experiment [13] is Gal(b1-4)GlcNAc(b1-3)Gal(b1-4)GlcNAc(b1-3)Gal(b1-4)GlcNAc(b1-3)Gal(b1-4)GlcNAc(b1-2)Man(a1-3)[Gal(b1-4)GlcNAc(b1-3)Gal(b1-4)GlcNAc(b1-3)Gal(b1-4)GlcNAc(b1-3)Gal(b1-4)GlcNAc(b1-2)Man(a1-6)]Man(b1-4)GlcNAc(b1-4)[Fuc(a1-6)]GlcNAc. A digest of the protocol:
as §1

Experiment [14] concerns the target Gal(b1-4)GlcNAc(b1-3)Gal(b1-4)GlcNAc(b1-3)Gal(b1-4)GlcNAc(b1-3)Gal(b1-4)GlcNAc(b1-2)[Gal(b1-4)GlcNAc(b1-3)Gal(b1-4)GlcNAc(b1-3)Gal(b1-4)GlcNAc(b1-3)Gal(b1-4)GlcNAc(b1-6)]Man(a1-6)[Gal(b1-4)GlcNAc(b1-3)Gal(b1-4)GlcNAc(b1-3)Gal(b1-4)GlcNAc(b1-3)Gal(b1-4)GlcNAc(b1-2)Man(a1-3)]Man(b1-4)GlcNAc(b1-4)[Fuc(a1-6)]GlcNAc. An outline of the steps:
as §1

Experiment [15] deals with Gal(b1-4)GlcNAc(b1-3)Gal(b1-4)GlcNAc(b1-3)Gal(b1-4)GlcNAc(b1-3)Gal(b1-4)GlcNAc(b1-3)Gal(b1-4)GlcNAc(b1-2)Man(a1-3)[Gal(b1-4)GlcNAc(b1-3)Gal(b1-4)GlcNAc(b1-3)Gal(b1-4)GlcNAc(b1-3)Gal(b1-4)GlcNAc(b1-3)Gal(b1-4)GlcNAc(b1-2)Man(a1-6)]Man(b1-4)GlcNAc(b1-4)GlcNAc. An outline of the steps:
as §1

Experiment [16] concerns the target Gal(b1-4)GlcNAc(b1-3)Gal(b1-4)GlcNAc(b1-3)Gal(b1-4)GlcNAc(b1-3)Gal(b1-4)GlcNAc(b1-3)Gal(b1-4)GlcNAc(b1-2)Man(a1-3)[Gal(b1-4)GlcNAc(b1-3)Gal(b1-4)GlcNAc(b1-3)Gal(b1-4)GlcNAc(b1-3)Gal(b1-4)GlcNAc(b1-3)Gal(b1-4)GlcNAc(b1-2)Man(a1-6)]Man(b1-4)GlcNAc(b1-4)[Fuc(a1-6)]GlcNAc. An outline of the steps: as §1
For experiment [17], the target named is Gal(b1-4)GlcNAc(b1-3)Gal(b1-4)GlcNAc(b1-3)Gal(b1-4)GlcNAc(b1-3)Gal(b1-4)GlcNAc(b1-3)Gal(b1-4)GlcNAc(b1-2)[Gal(b1-4)GlcNAc(b1-3)Gal(b1-4)GlcNAc(b1-3)Gal(b1-4)GlcNAc(b1-3)Gal(b1-4)GlcNAc(b1-3)Gal(b1-4)GlcNAc(b1-6)]Man(a1-6)[Gal(b1-4)GlcNAc(b1-3)Gal(b1-4)GlcNAc(b1-3)Gal(b1-4)GlcNAc(b1-3)Gal(b1-4)GlcNAc(b1-3)Gal(b1-4)GlcNAc(b1-2)Man(a1-3)]Man(b1-4)GlcNAc(b1-4)[Fuc(a1-6)]GlcNAc. An outline of the steps: as §1

The target of experiment [18] is Gal(b1-4)GlcNAc(b1-3)Gal(b1-4)GlcNAc(b1-3)Gal(b1-4)GlcNAc(b1-3)Gal(b1-4)GlcNAc(b1-3)Gal(b1-4)GlcNAc(b1-3)Gal(b1-4)GlcNAc(b1-2)Man(a1-3)[Gal(b1-4)GlcNAc(b1-3)Gal(b1-4)GlcNAc(b1-3)Gal(b1-4)GlcNAc(b1-3)Gal(b1-4)GlcNAc(b1-3)Gal(b1-4)GlcNAc(b1-3)Gal(b1-4)GlcNAc(b1-2)Man(a1-6)]Man(b1-4)GlcNAc(b1-4)GlcNAc. An outline of the steps:
as §1

The target in experiment [19] is Gal(b1-4)GlcNAc(b1-3)Gal(b1-4)GlcNAc(b1-3)GalNAc. A digest of the protocol: as §1

Some of the results follow.

B1: AT5G01260(PC)(40) (Arabidopsis thaliana), Q9LFB0 (protein)
chain: MIGIGRTLTSSSPSKIILEDLPPGIYRYGTEIFTSVPRKTFHHIKFLRLDSAQSSRILKPVPLRSSSIKDSQVNVEDEEIEASNKTVRVRFQLRKECVFGEHFFIVGDDPVFGGLWDPETALPLNWSDGNVWTVDLDLPVGRLVEFKLLLKAQTGEILWQPGPNRALETWETNKTIRICEDWDNADLQMMIEEDFVPYTNISSIGSEDEDEVLGSVQQNSSVVAVENAGYVSDESAQNSSFSIQSEKTMEPSNGALTAREVIKEAMFTEEESPVLVPGLIPLSDLDNEQVEVINEGKAETFPEVDKKQEPKAERNKKAKVKAISLFEKSEQEAVKSVEQRQYNAVEEEQQRLETEPLGTPDVLFENDIQWGRRTLYKLLSNFRLF
With B1, the “glycan array binding signal (z-score)” value in [1] is -0.621; in experiment [2], -0.271; in experiment [3], 0.255; in [4] it was 0.568; in [5] it was -0.167; in experiment [6] it was -0.214. The “glycan array binding signal (z-score)” value was -0.426 in [7]; -0.139 in [8]; -0.064 in [9]; 0.725 in experiment [10]; 0.662 in [11]; -0.315 in experiment [12]. Besides, the “glycan array binding signal (z-score)” value in experiment [13] is -0.075; in experiment [14] it was -0.1; in experiment [15], -0.397; in experiment [16] it was -0.581; in [17], 0.89; in experiment [18] it was -0.264. Besides, the “glycan array binding signal (z-score)” value in experiment [19] amounted to 0.383.
